PubChem BioAssay AID2060503 (Molecular Pharmacology Branch, DTP, NCI, 2025)
For part of its entries the source gives two or more results. They are shown here; other results are not. An entry can have further records. Values that stand side by side are repeated measurements (runs, samples, wells, individuals or studies). Counts like (3×) stand for listed records that agree.

Tested on: 817829-284-R-J1-PDC complex spheroids, viability
Assay: Anticancer human tumor 817829-284-R-J1-PDC patient-derived colon adenocarcinoma cell line growth inhibition [GQUAD]
Conditions: for viability, T/C: stronger effect = lower value
Description: DNA G-quadruplex Stabilizer Agents in Combinations in Complex Spheroids
A high-throughput screen of multi-cell type tumor spheroids was designed to identify active combinations of DNA G-quadruplex stabilizer agents and targeted small molecules. Complex spheroids include a stromal component modeled by human endothelial cells (HUVEC) and fibroblasts modeled by human mesenchymal stem cells (MSCs). The concentration ranges selected for each drug and investigational agent were based upon clinically achievable concentrations if the clinical Cmax of the agent was known.
Compounds. The drugs and investigational agents: pidnarulex (CX-5461; NSC782164), APTO-253 (NSC789042), BRACO-19 (NSC847499), peposertib (NSC802822), ceralasertib (NSC780249), elimusertib (NSC800525), camonsertib (NSC841442), AZD-1390 (NSC803789), olaparib (NSC753686), talazoparib (NSC767125), ART-558 (NSC835418), sotorasib (NSC818433), MRTX-1133 (NSC836407), SN-38 (NSC673596), topotecan (NSC609699), etoposide (NSC141540), doxorubicin (NSC123127), gemcitabine (NSC613327), 5-fluorouracil (NSC19893), paclitaxel (NSC125973), vemurafenib (NSC761431), panobinostat (NSC761190), R-306465 (JNJ-16241199; NSC773264), adavosertib (NSC754352), TP-3654 (NSC805149), carboplatin (NSC241240), KSQ-4279 (NSC840948), and staurosporine (NSC755774) were obtained from the National Cancer Institute (NCI) Developmental Therapeutics Program Chemical Repository (34). The FDA-approved anticancer drug set is available from the NCI Developmental Therapeutics Program. […] The stock solutions were prepared in dimethyl sulfoxide (DMSO, Sigma-Aldrich, St. Louis, MO, cat. D2650) at 800-fold the tested concentration and stored at -70 degrees C prior to their use. All drugs and investigational agents were tested over a range starting from a high concentration at or near the clinical Cmax and decreasing in half-log increments. If the clinical Cmax for an agent had not been determined, the highest concentration tested was 10 microM.
2.3 Cell Culture. All cells were maintained in an incubator at 37 degrees C and 5% CO2 with 95% humidity. The PDC lines were cultured according to standard operating procedures established by the NCI PDMR. All PDCs were thawed and cultured in Matrigel-coated flasks prepared with a working solution of 1X Ham's F-12 nutrient mix, without supplementation (Invitrogen, cat. 11765054), 100 U/mL penicillin-streptomycin (Invitrogen, cat. 15140122), and 2.5% Matrigel (Corning Inc., cat. 354248) for the first three passages. […]
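Note: spheroids exposed to agents for 7 days before readout.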
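Throughout, for viability, T/C: percent viability relative to DMSO vehicle control taken as 100%.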

IC50 (compound alone, run of 02/26/2024): 1.78, 9.23, 8.68, 1.85 µM
Structure (SMILES): Cc1[nH]c2ccc(F)cc2c1-c1nc2c3cccnc3c3ncccc3c2[nH]1
viability, T/C (compound alone 0.0316 µM): 92.1, 108, 105 (2×), 106, 97, 110, 116, 101, 94.3, 95.2, 119% | viability, T/C (compound alone 3.16 µM): 51.5, 49.6, 41.1, 63.1, 53.4, 44.5, 49.4, 59.6, 3.83, 67.5, 78.2, 3.3% | viability, T/C (compound alone 10 µM): 9.63, 34, 11.4, 22.4, 24.6, 44.4, 32.4, 24.5, 2.97, 48.7, 46, 3.09%
